Experiment [1] addresses CDK2/CycA (Homo sapiens, UniProt P24941). Put plainly: Z'LYTE kinase assay CDK2/CycA. It counts as biochemical.
The target of experiment [2] is T1, CDK2 (Homo sapiens, UniProt P24941). Put plainly: NanoBRET live cell target engagement CDK2. It counts as cell-based.
For experiment [3], the system named is kinases in HCT116 cells. In words: KiNativ live cell kinome profiling. It counts as cell-based, human. The conditions noted are these: 1 μM, 4 h.
In experiment [4] the test system is phosphorylated RB S807/811. In words: Immunoblot of phosphorylated RB S807/811 in HCT116 cells. It is filed as cell-based, human. The following applies: 1 μM. (In general: A western blot detects proteins with antibodies after separation by electrophoresis.)
In experiment [5] the target is T2, CDK14 (Homo sapiens, UniProt O94921). Put plainly: NanoBRET live cell target engagement CDK14. The conditions noted are these: for IC50: IC50 CDK14 NanoBRET, HCT116 cells, without compound washout, ± SEM. It counts as cell-based. In general terms: In BRET a luciferase serves as donor, and the signal depends on an acceptor being close.
Experiment [6] deals with T2, CDK14. Put plainly: Cellular target engagement of CDK14 by pulldown assay. It counts as cell-based.
Experiment [7] deals with T2, CDK14. In words: CDK14 33P kinase assay. It is filed as biochemical.
In experiment [8] the target is CDK16/CycY (Homo sapiens, UniProt Q00536). Put plainly: LanthaScreen Eu kinase binding assay CDK16/CycY. A general note: In TR-FRET formats the signal depends on donor and acceptor labels being close together.
For experiment [9], the system named is HCT116 cells. In words: HCT116 antiproliferation assay. The following applies: for IC50: Homo sapiens, HCT-116, 72 h, read-out: IC50 HCT116 Proliferation. It counts as cell-based, human.
For experiment [10], the target named is T2, CDK14. Put plainly: Competition pull-down with biotin-FMF-03-198-2 in HCT116 cells, CDK14. It counts as cell-based. The following applies: 4 h treatment.
Experiment [11] addresses CDK10 (Homo sapiens, UniProt Q15131). In words: Competition pull-down with biotin-FMF-03-198-2 in HCT116 cells, CDK10. The following applies: 4 h treatment; for concentration at which engagement of CDK10 was observed (pull-down): HCT116 cells. It counts as cell-based.
Chain of UniProt Q15131 (Q15131 whole entry): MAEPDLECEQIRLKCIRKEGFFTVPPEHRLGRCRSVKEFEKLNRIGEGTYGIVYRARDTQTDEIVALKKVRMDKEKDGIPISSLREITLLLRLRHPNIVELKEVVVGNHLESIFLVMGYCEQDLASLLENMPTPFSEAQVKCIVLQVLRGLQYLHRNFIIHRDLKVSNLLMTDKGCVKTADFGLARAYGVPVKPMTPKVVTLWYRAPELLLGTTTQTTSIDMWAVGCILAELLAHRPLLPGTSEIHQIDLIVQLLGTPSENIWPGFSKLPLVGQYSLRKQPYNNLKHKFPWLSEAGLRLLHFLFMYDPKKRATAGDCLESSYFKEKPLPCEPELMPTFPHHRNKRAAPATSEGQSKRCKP
Experiment [12] deals with T1, CDK2. In words: Competition pull-down with biotin-FMF-03-198-2 in HCT116 cells, CDK2. The conditions noted are these: 4 h treatment; for concentration at which only slight inhibition of CDK2 was observed (pull-down): HCT116 cells. It counts as cell-based.
For experiment [13], the system named is Nucleophosmin (NPM) T199 phosphorylation. In words: Immunoblot of Nucleophosmin. It is filed as cell-based, human. The conditions noted are these: HCT116 cells, 1 μM.
The subject of experiment [14] is HCT116 CDK14 knockout cells expressing WT or C218S CDK14. In words: FACS PI cell cycle analysis. It counts as cell-based, human. The conditions noted are these: 24 h treatment.
For experiment [15], the target named is CDK16 (Homo sapiens, UniProt Q00536). Put plainly: Competition pull-down with biotin-FMF-03-198-2 in HCT116 cells, CDK16. It is filed as cell-based. The following applies: 4 h treatment.
For experiment [16], the target named is CDK17 (Homo sapiens, UniProt Q00537). Put plainly: Competition pull-down with biotin-FMF-03-198-2 in HCT116 cells, CDK17. It counts as cell-based. The conditions noted are these: 4 h treatment.
Chain of UniProt Q00537 (Q00537 whole entry): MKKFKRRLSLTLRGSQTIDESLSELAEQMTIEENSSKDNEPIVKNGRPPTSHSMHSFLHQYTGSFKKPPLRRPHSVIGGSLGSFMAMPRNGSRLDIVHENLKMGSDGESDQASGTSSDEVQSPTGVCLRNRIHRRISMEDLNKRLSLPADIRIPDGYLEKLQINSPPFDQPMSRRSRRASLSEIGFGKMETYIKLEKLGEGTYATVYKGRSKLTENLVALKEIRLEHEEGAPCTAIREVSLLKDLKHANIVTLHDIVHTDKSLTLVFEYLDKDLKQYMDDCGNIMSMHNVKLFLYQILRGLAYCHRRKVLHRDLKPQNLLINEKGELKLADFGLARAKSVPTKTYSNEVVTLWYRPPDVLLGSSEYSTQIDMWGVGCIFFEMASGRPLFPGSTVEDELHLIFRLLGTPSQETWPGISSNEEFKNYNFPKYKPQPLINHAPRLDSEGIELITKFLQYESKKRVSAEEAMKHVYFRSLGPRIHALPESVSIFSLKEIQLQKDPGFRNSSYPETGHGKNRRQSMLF
The test system of experiment [17] is pLRP6 S1490. Put plainly: LRP6 S1490 phosphorylation in double thymidine-synchronized cells. It is filed as cell-based, human. The conditions noted are these: 1 μM, 4 h windows, 8 to 10 h after release.

For `CN(C)C/C=C/C(=O)Nc1cccc(S(=O)(=O)N2CCC(NC(=O)c3n[nH]cc3NC(=O)c3c(Cl)cccc3Cl)CC2)c1` [FMF-03-198-2, (E)-4-(2,6-dichlorobenzamido)-N-(1-((3-(4-(dimethylamino)but-2-enamido)phenyl)sulfonyl)piperidin-4-yl)-1H-pyrazole-3-carboxamide], the IC50 in experiment [1] came out at 1 ± 0.7 nM; in [2] it was 113 ± 62.1 nM. In experiment [3], the “kinases inhibited in KiNativ profiling” value is listed as “pan-CDK kinase inhibitor”.
On to `O=C(NC1CCNCC1)c1n[nH]cc1NC(=O)c1c(Cl)cccc1Cl` [AT7519, N-(4-piperidinyl)-4-(2,6-dichlorobenzoylamino)-1 H-pyrazole-3-carboxamide, reference compound], for which the “kinases inhibited in KiNativ profiling” value in [3] was “potently inhibited CDK14”. Moreover, the “levels of phosphorylated RB S807/811” value in [4] is given as “partial reduction”.
On to `CN(C)CCCC(=O)Nc1cccc(S(=O)(=O)N2CCC(NC(=O)c3n[nH]cc3NC(=O)c3c(Cl)cc(Cl)cc3Cl)CC2)c1` [FMF-04-159-R, N-(1-((3-(4-(dimethylamino)butanamido)phenyl)sulfonyl)piperidin-4-yl)-4-(2,4,6-trichlorobenzamido)-1H-pyrazole-3-carboxamide], for which the “further fold reduction of CDK14 inhibition after washout (NanoBRET)” value in [5] (2 h washout vs no washout) came out at 7 fold. The IC50 in experiment [5] is 563 ± 145 nM; in experiment [6], above 1000 nM; in experiment [7] it was 367 ± 135 nM; in experiment [8], 5.9 ± 2 nM; in [1] it was 4.9 ± 0.5 nM; in experiment [2] it was 493 ± 81 nM. In [9], the IC50 was found to be 5870 ± 1190 nM. Moreover, the “fold less potent inhibition of CDK14 than FMF-04-159-2 (NanoBRET)” value in experiment [5] (without washout) is listed as 5 fold. The “concentration up to which compound failed to block CDK14 pull-down” value in experiment [10] (HCT116 cells) was above 1 µM. In addition, in experiment [11], the “concentration at which engagement of CDK10 was observed (pull-down)” value was “above 750 nM”. The “concentration at which only slight inhibition of CDK2 was observed (pull-down)” value in experiment [12] is “above 500 nM”. Moreover, in experiment [4], the “levels of phosphorylated RB S807/811” value is reported as “did not observe major reductions”. Besides, in experiment [13], the “Inhibition of NPM T199 phosphorylation” value was “comparable to AT7519”. In addition, the “effect on cell cycle phase distribution” value in [14] is “increases in cells in G1 and G2/M and a reduction in S-phase cells”.
As for `CN(C)C/C=C/C(=O)Nc1cccc(S(=O)(=O)N2CCC(NC(=O)c3n[nH]cc3NC(=O)c3c(Cl)cc(Cl)cc3Cl)CC2)c1` [FMF-04-159-2, (E)-N-(1-((3-(4-(dimethylamino)but-2-enamido)phenyl)sulfonyl)piperidin-4-yl)-4-(2,4,6-trichlorobenzamido)-1H-pyrazole-3-carboxamide], the “fold weaker potency for CDK14 at 2 h than at 6 h (NanoBRET)” value in experiment [5] (2 h timepoint vs 6 h) was around 20 fold. The IC50 in experiment [5] is 39.6 ± 2.8 nM; in experiment [6], 500 nM; in experiment [7], 352 ± 40 nM; in experiment [9], 1140 ± 190 nM. Besides, the “fold less potent than FMF-03-198-2 in HCT116 cell proliferation assays” value in [9] is reported as “more than 200 fold”. The “fold difference in HCT116 cell IC50 between the reversible and covalent inhibitor pair” value in experiment [9] (FMF-04-159-R vs FMF-04-159-2) stood at 5 fold. For the same molecule, the “CDK14 engagement after washout (pull-down)” value in experiment [10] (1 μM, then washout) is “sustained for up to 2 h after washout”. In experiment [10] (HCT116 cells), the “concentration of complete engagement of CDK14 (pull-down)” value was at least 500 nM. Further, the “CDK10 engagement after washout (pull-down)” value in experiment [11] (1 μM, 2 h after washout) is given as “no longer inhibited”. For the same molecule, in experiment [11], the “concentration at which engagement of CDK10 was observed (pull-down)” value is listed as “above 750 nM”. The “CDK16 engagement after washout (pull-down)” value in experiment [15] (1 μM, 2 h after washout) was “almost fully removed”. In experiment [15] (HCT116 cells), the “concentration at which CDK16 was inhibited (pull-down)” value was “above 750 nM”. Moreover, the “CDK17 engagement after washout (pull-down)” value in [16] (1 μM, 2 h after washout) was “no longer inhibited”. Further, the “concentration at which CDK17 was inhibited (pull-down)” value in experiment [16] (HCT116 cells) is recorded as “above 750 nM”. For the same molecule, the “CDK2 engagement after washout (pull-down)” value in experiment [12] (1 μM, 2 h after washout) was “no longer inhibited”. The “concentration at which only slight inhibition of CDK2 was observed (pull-down)” value in experiment [12] was “above 500 nM”. For the same molecule, the “kinases inhibited in KiNativ profiling” value in [3] was “potently inhibited the TAIRE kinases CDK14, CDK16, CDK17 and CDK18”. In addition, in experiment [4], the “levels of phosphorylated RB S807/811” value is reported as “did not observe major reductions”. Further, in experiment [13], the “Inhibition of NPM T199 phosphorylation” value is recorded as “comparable to AT7519”. Also, the “reduction of pLRP6 during mitosis” value in [17] is given as 22 – 35%. Besides, in experiment [14], the “effect on cell cycle phase distribution” value was “increased numbers of cells in G2/M”.

The values above are taken from article PMC6588450 (Cell chemical biology, 2019).
